# Assay results as given in the RNAGym collection of RNA variant scans (doi:10.1073/pnas.2313332121).
# Variants at the floor of the assay are shown more often than the library holds them.
# B1: TPR 5TU (parent)
# chain: GGAUCUUCUCGAUCUAACAAAAAAGACAAAUCUGCCACAAAGCUUGAGAGCAUCUUCGGAUGCAGAGGCGGCAGCCUUCGGUGGCGCGAUAGCGCCAACGUUCUCAACUAUGACACGCAAAACGCGUGCUCCGUUGAAUGGAGUUUAUCAUG
# Variants of: B1
# Experiment: polymerase ribozyme fitness, log enrichment relative to wild type (log ratio); higher = more active; in vitro selection for triplet polymerase activity
# In short: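 A heterodimeric triplet polymerase ribozyme had each of its subunits mutagenized by PCR into a library, which was transcribed. One round of in vitro selection, done in triplicate, annealed each library with a biotinylated primer, its partner subunit and triplets, then incubated it frozen at −7 °C before gel excision of extended constructs, streptavidin-bead capture and RT-PCR. Fitness is the logarithm of genotype enrichment relative to wild-type enrichment, based on Illumina sequencing of inputs and outputs and inverse-variance-weighted replicate averages. A base-2 logarithm is used, and genotypes were kept only with ≥10 input reads and ≥1 read per output.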
row,Variant,polymerase ribozyme fitness (log ratio)
1,A64U C96U C105G G141A A147G,≤ -4.2
2,G62A G65U G70U G88A C95U,≤ -4.2
3,G62U C99A A121C,≤ -4.2
4,A60U C76G G84U,≤ -4.2
5,U61A G84C C85A C103G,≤ -4.2
6,G62C G80U G141A,≤ -4.2
7,A64C C76A G81A,≤ -4.2
8,U61A U77A C87A U101A A119U G126C,≤ -4.2
9,C63U G94C C132U G141A,≤ -4.2
10,U61G C99U,-2.77
11,A64C G83C A89U U134A G141A,≤ -4.2
12,C63U G67A,≤ -4.2
13,G62C C95U U146G,≤ -4.2
14,C63U A64G G67C A97C A110U G126A A150C,≤ -4.2
15,A60G A115G U144C U146A A150U,-3.85
16,G62C C69U G92A G128A G141A,≤ -4.2
17,A64U C75G G80C C85A G100U U146A,≤ -4.2
18,U61C G152A,≤ -4.2
19,U61G C96U,-1.29
20,G62A C69A C75G A115G,≤ -4.2
21,C63G U102G C105U,≤ -4.2
22,A60G C87A G140C G141C A142C,≤ -4.2
23,U61G G68A U77C C87U C93G C123U G126C U135C,≤ -4.2
24,U61G U82C A89U A120U U135A,-2.52

row,Variant,polymerase ribozyme fitness (log ratio)
1,G62C A115C,-1.06
2,A60G A89G,-0.778
3,C63A C76G C85U C96U A97G C116G,≤ -4.2
4,U61A G124C,-2
5,A60G G126A,1.03
6,A60U,-0.665
7,G62C C96A G124A A150G,≤ -4.2
8,G62U G100U U139G,≤ -4.2
9,U61G C93A,-4.13
10,U61A G84A U90G A119C C123A U148A,≤ -4.2
11,C63A C87U G88A A115U,≤ -4.2
12,A60U G83C C85A C96U G133U U135A,≤ -4.2
13,U61A C75G,-3.89
14,U61A C125U,-1.86
15,A64G C75G G84U U127A A142U,≤ -4.2
16,A60G G74U G92U A142U,≤ -4.2
17,U61C C85A A121G U135A,≤ -4.2
18,U61A A147U,-0.329
19,A64C C87G C99A U151A,≤ -4.2
20,C63G A64C C72U C95U C105G A120U G141U,≤ -4.2
21,A64U C96A U111C C114G A147U,≤ -4.2
22,A60G G84U G88C C103U A119U,≤ -4.2
23,A64C G65U G68U G80A C93A C103U C125U,≤ -4.2
24,G62U A66G G68C G92A U104G G140U,≤ -4.2

row,Variant,polymerase ribozyme fitness (log ratio)
1,A64G C69A C85G G100U U145A,≤ -4.2
2,G62C C75U G84U C95A C99A,≤ -4.2
3,A60G G84A C87U C93A C125G,≤ -4.2
4,C63U G65A A73U A115G U134G,≤ -4.2
5,A60U G84U,-1.58
6,C63G C76U A91U G141U,≤ -4.2
7,A60G G86C U148A,≤ -4.2
8,G62A C63G C105G,≤ -4.2
9,U61A A97G U130G C132G,≤ -4.2
10,G62A C99U,-2.24
11,U61A G74U C75U A121C,≤ -4.2
12,A64U G83C G143C,≤ -4.2
13,A60G G128U,-2.75
14,A64C C72U G86A G88U A106C A122U,≤ -4.2
15,U61G C93A G140C U144G,≤ -4.2
16,G62C C87A U90A G136C,≤ -4.2
17,A64G A66C,≤ -4.2
18,U61A C85G U111G U134G,≤ -4.2
19,G62A G88A G126U,≤ -4.2
20,U61A C85U A97C A120G,-3.26
21,C63U G70A C85G A138C,≤ -4.2
22,A60U G84U U102G,-4.18
23,U61A G80C,≤ -4.2
24,U61C G126A,-0.237

row,Variant,polymerase ribozyme fitness (log ratio)
1,A64U G67C G74A C76A A91U A106C C125U,≤ -4.2
2,U61A C149A,≤ -4.2
3,A64G C69G C75A C85A A89U C93A U104G,≤ -4.2
4,U61A G94A,-2.08
5,U61A C76G A137U U148G,≤ -4.2
6,A64G C99A G143A,≤ -4.2
7,G62A G70A G71A G80C C87U C108U,≤ -4.2
8,C63U A66G G83C A91G C93U A106G C114G G128A G141A,≤ -4.2
9,G62A G100A G126U U148C,≤ -4.2
10,A60U U101A U151C,≤ -4.2
11,A64U A73C C87U C93U A137G A138C,≤ -4.2
12,U61G C96U U144G,-1.1
13,G62A G65A G117U U144A,-3.79
14,G62A G141U,1.11
15,C63U C93A C116G A142U G143C,≤ -4.2
16,G62A C69U U77A C85G C118U U148C,≤ -4.2
17,C63G G81C U82A,-0.391
18,A60U C93U,-3.16
19,A60G U144A,-0.159
20,A64C C85A C118G A121C,≤ -4.2
21,G62U U102A,-1.64
22,U61G G68C C69U G84A C95G U127C G152U,≤ -4.2
23,A64G G67C C95U A110G U139A,≤ -4.2
24,U61A U102G,≤ -4.2

row,Variant,polymerase ribozyme fitness (log ratio)
1,A64C C85U G94U A121G,≤ -4.2
2,C63U C85A C108G A110G,≤ -4.2
3,A64C G88C C99U,≤ -4.2
4,U61G A91U C96G G141C,≤ -4.2
5,C63U C85G U127A U139A U145C,≤ -4.2
6,U61A G67A G94C U145G A147U,≤ -4.2
7,U61G A73U C93A,≤ -4.2
8,U61C G92A A120C C123A U144C,≤ -4.2
9,U61A C105U U134G U139G,-4.18
10,C63U C75U C76U G80A U82A C108G C114U U148C,≤ -4.2
11,U61A C85U A106C U111C G133A,≤ -4.2
12,A64U G92A C95A U101C C105U C123A G124C U145G U148G,≤ -4.2
13,U61A C95A C108A C125A G140U,≤ -4.2
14,C63U U82G G126A G140A,-3.92
15,U61A C69A C85A U139A C149G,≤ -4.2
16,A64U C87A U111G G141U,≤ -4.2
17,C63U G70A G80C G83C C108G C116U,≤ -4.2
18,U61A U102G A106U G143A U151A,≤ -4.2
19,A60U G84A C116U,-1.05
20,A64C C75G U82G C95A C96U A107U G140C,≤ -4.2
21,G62A U130G,-3.67
22,A64U A97G U111G A142U U145A,≤ -4.2
23,G62A G68C C87U,≤ -4.2
24,A60U U139A A150U,≤ -4.2

row,Variant,polymerase ribozyme fitness (log ratio)
1,A60G G70A C108G,≤ -4.2
2,A60G C129G,-2.25
3,G62C G71U A150G,≤ -4.2
4,A64G G68A,≤ -4.2
5,G62A C76G G83U U135A,≤ -4.2
6,C63U C76A C103G U146G U148G,≤ -4.2
7,U61A G74A C85U C93U A107G,≤ -4.2
8,A60G U134G,-2.14
9,C63U C69A C87A G140C,≤ -4.2
10,A64G G88U U101G C103G U146G,≤ -4.2
11,A60G U77C G80U A91C C99U C125U G141U,≤ -4.2
12,C63U A91U C93G U139G,≤ -4.2
13,A60G G117C G124U,0.122
14,A64G G80A A91G,≤ -4.2
15,G62U U90C,≤ -4.2
16,A60U C79U A98G C103A,≤ -4.2
17,C63A G92U C116U,-3.98
18,A64C C69G U144G,≤ -4.2
19,U61A C85A G141C,-2.36
20,G62A A66G G70A C125U,≤ -4.2
21,A60G C87G U135A,≤ -4.2
22,A60G U90G U145A,≤ -4.2
23,A60U C85U C87A G143A,≤ -4.2
24,A64C G88U A89G G117C C131G,≤ -4.2

row,Variant,polymerase ribozyme fitness (log ratio)
1,C63U C85U C87U,-0.425
2,A64U A66U G94C A106G G133C A150G,≤ -4.2
3,U61A C87U G92A A106G A122U,-2.84
4,C63G G133U,-4.14
5,C63G U78A C79U C85U A98G A106U U134C A142G U146A,≤ -4.2
6,A64C G71U A91G A150C,≤ -4.2
7,A64G C69A G71A U90A C96U A115C U144G,≤ -4.2
8,C63U C103G U146G,-2.3
9,A60U G143A,-1.07
10,G62C C72U A107G A113U,≤ -4.2
11,G62A C75A A91U U111G,≤ -4.2
12,U61A A113C C125U,≤ -4.2
13,A64U C105G U148C,≤ -4.2
14,G62C G94C,-2.03
15,A64C C85A,≤ -4.2
16,A60U A150C,-3.39
17,A60U C85U G88U C99U,≤ -4.2
18,A60U G136C U139G,-3.71
19,U61G A66C A150G,≤ -4.2
20,A60U C99U U148A G152A,≤ -4.2
21,U61A C79A G133A,≤ -4.2
22,G62C G83A,-2.25
23,G62C U78C C79U G136U,≤ -4.2
